In all, about 310,000 compounds went through this assay and about 18,000 (5.8%) were called active. Inconclusive results, whose numbers are uncertain, are shown with a selection of clear calls. The call rests on the fitted dose curve; in most records, active means well fitted inhibition curve with a large enough effect; inconclusive means small, poorly fitted or top-dose-only effect, or another doubt; inactive means no such curve, though single readings can be large or run the other way. No potency is given beside an inconclusive call; the fits are too rough.
assay: Primary qHTS for delayed death inhibitors of the malarial parasite plastid, 48 hour incubation; conditions: P. falciparum luciferase growth in erythrocytes; series mostly up to 28.7 µM; activity change, negative = inhibition: at the top concentration
Procedure, shortened: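 Luciferase-expressing parasites in RBCs, 2% Hct / 0.1% parasitemia final; RPMI 1640 + 0.5% Albumax; 37 C, 5% CO2, one generation; luminescence read-out, lower signal = inhibition.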
On the % scale 0 is the no-effect control and ±100 the full control effect; potency means the concentration at half of the fitted maximal effect; tags describe the fitted curve by direction and shape.

| SMILES | Potency | activity change, negative = inhibition |
| --- | --- | --- |
| C[C@]12CC[C@@H]3c4ccc(OC(=O)c5ccccc5)cc4CC[C@H]3[C@@H]1CC[C@@H]2O | inconclusive [inhibitor, single point] |  |
| CN(C(=O)COC(=O)C1CCN(S(=O)(=O)c2c(Cl)cccc2Cl)CC1)c1ccccc1 | inconclusive [inhibitor, single point] |  |
| O=C(COC(=O)c1cccnc1Cl)Nc1ccc2c(c1)OCO2 |  | inactive: 90.2% |
| CC(=O)c1ccc(OCCCOc2cccc3cccnc23)cc1 | inconclusive [inhibitor, single point] |  |
| Cc1cccc(-n2ncc3c(N(C)C4CCCCC4)ncnc32)c1 |  | inactive: 22.2% |
| CN(C)S(=O)(=O)c1ccc(N2C(=O)CC2(/C=C/c2ccccc2)C(=O)NC2CCCC2)cc1 (stereo not given) | inconclusive [inhibitor, single point] |  |
| COC1(OC)C(/C=C/c2ccc(Cl)cc2)C(C#N)(C#N)C1(OC)OC (stereo not given) | inconclusive [inhibitor, single point] |  |
| S=C(NCc1ccc2[nH]c3c(c2c1)CCCC3)Nc1ccccc1 | inconclusive [inhibitor, single point] |  |
| COc1cc2nc(CN3C(=O)c4ccccc4C3=O)oc(=O)c2cc1OC |  | inactive: 1.43% |
| O=C(O)/C=C\c1cn(-c2ccccc2)nc1-c1cc2ccccc2o1 | inconclusive [inhibitor, single point] |  |
| O=S(=O)(c1cccc(-c2nnc(SCc3nc4ccccc4s3)o2)c1)N1CCOCC1 |  | inactive: 78.8% |
| CN(C)S(=O)(=O)c1cccc(C(=O)Nc2ccccc2N2CCCCC2)c1 | inconclusive [inhibitor, single point] |  |
| C/C(=C\c1ccccc1)CN1CCN(C)CC1 |  | inactive: -13.6% |
| CC(=O)Nc1ccc(NC(=O)C(C)OC(=O)C2CCN(S(=O)(=O)c3ccccc3C(F)(F)F)CC2)cc1 (stereo not given) | inconclusive [inhibitor, partial curve, poor fit] |  |
| Cc1ccc([N+](=O)[O-])cc1NC(=O)CCc1ccccc1 |  | inactive: 8.29% |
| CCCCN(C(=O)CSCC(=O)Nc1cccc(C)c1)c1c(N)n(Cc2ccccc2)c(=O)[nH]c1=O | inconclusive [inhibitor, single point] |  |
| Cc1ccc(-c2nc3ccccc3[nH]2)cc1NC(=O)/C=C/c1ccco1 | inconclusive [inhibitor, single point] |  |
| CCOC(=O)N1CCN(C(=O)C2CCCN(S(=O)(=O)c3c(C)cc(C)cc3C)C2)CC1 (stereo not given) | inconclusive [inhibitor, partial curve, poor fit] |  |
| Cc1ccc(-c2ccc(C(=O)Nc3cccc(F)c3)o2)c2ccccc12 | inconclusive [inhibitor, single point] |  |
| Cc1ccc(C)c2[nH]c(=O)c(CN(CC3CCCO3)C(=S)NCc3ccco3)cc12 (stereo not given) | inconclusive [inhibitor, single point] |  |

| SMILES | Potency | activity change, negative = inhibition |
| --- | --- | --- |
| O=C1c2cccnc2-c2ncccc21 |  | inactive: -7.07% |
| COc1ccc(C2C(C(C)=O)=C(O)C(=O)N2c2ccc(Br)cn2)cc1 (stereo not given) | inconclusive [inhibitor, partial curve, poor fit] |  |
| O=C(Nc1cccc(S(=O)(=O)N2CCCCCC2)c1)C1CCC1 | inconclusive [inhibitor, partial curve, poor fit] |  |
| COc1ccc(CN(C2CCCCC2C)S(=O)(=O)c2ccc(S(=O)(=O)N(C)C)cc2)cc1OC (stereo not given) | active: 13.1 µM |  |
| COC(=O)c1[nH]c2cc(OC)c(OC)cc2c1NC(=O)CN1CCN(Cc2ccccc2)CC1 | inconclusive [inhibitor, partial curve] |  |
| CC(C)[C@H]1C(=O)O[C@H](C(C)C)C(=O)N(C)[C@@H](C(C)C)C(=O)O[C@H](C(C)C)C(=O)N(C)[C@@H](C(C)C)C(=O)O[C@H](C(C)C)C(=O)N1C | inconclusive [inhibitor, full curve, poor fit] |  |
| CN(C)c1nc(Nc2ccccc2)nc(N(C)C)n1 |  | inactive: 30.8% |
| COc1ccc(NC(=O)Cn2c(=O)cnc3ccccc32)cc1S(=O)(=O)N1CCCCC1 | inconclusive [inhibitor, single point] |  |
| CC(=O)c1c(C)nc(-c2ccc(OCC(=O)Nc3ccccc3)cc2)n1O | inconclusive [inhibitor, single point] |  |
| O=C(NN=C(Cc1ccccc1)Cc1ccccc1)C1CC1 |  | inactive: -15.8% |
| COc1cc2[nH]c(C(=O)NCCc3ccccc3)cc2c(OC)c1OC | inconclusive [inhibitor, single point] |  |
| COc1ccccc1C(=O)N/C(=C/c1ccc(Br)cc1)C(=O)NCCCn1ccnc1 | inconclusive [inhibitor, single point] |  |
| Cc1cc(C(=O)N/N=C/c2ccc([N+](=O)[O-])s2)n[nH]1 | inconclusive [inhibitor, full curve] |  |
| COc1ccc(-n2c(SCC(=O)NCC3CCCO3)nc3c([nH]c4ccccc43)c2=O)cc1OC (stereo not given) | inconclusive [inhibitor, partial curve, poor fit] |  |
| Cc1ccc2c(c1)N(C(=O)CCC(=O)Nc1ccccc1Cl)CC(C)O2 (stereo not given) | inconclusive [inhibitor, full curve, poor fit] |  |
| COc1nccnc1NS(=O)(=O)c1ccc(NC(=S)NC(=O)c2cccnc2)cc1 | inconclusive [inhibitor, full curve] |  |
| C=CCn1c(-c2cccc(S(=O)(=O)N3CCOCC3)c2)n[nH]c1=S | inconclusive [inhibitor, single point] |  |
| c1ccc(CNCCC(Cc2ccccc2)c2ccco2)cc1 (stereo not given) | inconclusive [inhibitor, single point] |  |
| CCN(CC)S(=O)(=O)c1ccc(O)c(C(=O)OCC(=O)Nc2cc(C)c(C)cc2[N+](=O)[O-])c1 | inconclusive [inhibitor, partial curve, poor fit] |  |
| CSc1nc(S(=O)(=O)c2ccc(C)cc2)c(Cl)s1 | active: 11.7 µM |  |

Reference: PubChem BioAssay AID504832 (National Center for Advancing Translational Sciences (NCATS), 2011)
